No constants are given. Whether binding was seen depends on the method and setting. For some of these results: Binding seen in cells or lysates may run through a third protein. Some binding calls cover weakened binding; strength is not graded here. Sequences can lack the tags named with a protein.

The chains behind the UniProt entries cited, without tags or fusion partners.
UniProt P17839: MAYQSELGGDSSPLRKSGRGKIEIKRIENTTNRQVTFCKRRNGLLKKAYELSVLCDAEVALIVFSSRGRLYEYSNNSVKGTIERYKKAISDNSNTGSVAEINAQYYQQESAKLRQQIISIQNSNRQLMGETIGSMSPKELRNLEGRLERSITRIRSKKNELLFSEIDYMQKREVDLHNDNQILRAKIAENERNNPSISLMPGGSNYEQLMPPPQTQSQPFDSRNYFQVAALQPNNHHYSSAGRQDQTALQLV
UniProt O22456: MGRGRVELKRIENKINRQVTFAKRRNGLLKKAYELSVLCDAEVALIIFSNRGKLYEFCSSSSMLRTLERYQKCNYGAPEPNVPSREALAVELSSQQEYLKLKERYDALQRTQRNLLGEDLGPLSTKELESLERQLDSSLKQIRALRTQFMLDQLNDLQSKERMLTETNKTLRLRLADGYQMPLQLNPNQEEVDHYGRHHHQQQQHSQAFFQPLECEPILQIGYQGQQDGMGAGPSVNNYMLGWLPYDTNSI
UniProt Q38836: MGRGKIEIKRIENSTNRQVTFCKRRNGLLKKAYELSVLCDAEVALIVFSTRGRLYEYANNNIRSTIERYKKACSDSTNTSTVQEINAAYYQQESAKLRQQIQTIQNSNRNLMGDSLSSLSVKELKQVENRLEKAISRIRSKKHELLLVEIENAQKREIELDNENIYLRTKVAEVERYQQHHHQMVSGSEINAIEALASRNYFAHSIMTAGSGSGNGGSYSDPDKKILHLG

Assay [1] addresses AGAMOUS (AG), full length, yeast two-hybrid bait (Arabidopsis) (UniProt P17839). Description: two-hybrid; bait in pDEST32 (DBD), prey in pDEST22 (AD), S. cerevisiae AH109; growth on SD-Leu-Trp-His with 2.5 mM 3-amino-1,2,4-triazole, 10-, 100- and 1,000-fold dilutions.
Assay [2] deals with …3 (SEP3), full length, yeast two-hybrid bait (Arabidopsis) (UniProt O22456). The description is as above.
The target of assay [3] is … (STK), yeast two-hybrid bait (Arabidopsis) (UniProt Q38836). Described as above.
Assay [4] addresses AG-SEP3 complex (AG with a luciferase half, co-expressed with untagged 35S-SEP3) (Arabidopsis) (UniProt P17839+O22456). Description: split reporter; LCI in tobacco leaves; the luciferase halves on AG and on BEL1, 35S-SEP3 co-expressed, with or without mTCP4-MYC; 22 °C, or 28 °C for 4 hr (signal increased with mTCP4-MYC, weakened at 28 °C).
Assay [5] deals with T1, BELL1 (BEL1), full length, yeast two-hybrid bait (Arabidopsis) (UniProt Q38897).
T1 sequence: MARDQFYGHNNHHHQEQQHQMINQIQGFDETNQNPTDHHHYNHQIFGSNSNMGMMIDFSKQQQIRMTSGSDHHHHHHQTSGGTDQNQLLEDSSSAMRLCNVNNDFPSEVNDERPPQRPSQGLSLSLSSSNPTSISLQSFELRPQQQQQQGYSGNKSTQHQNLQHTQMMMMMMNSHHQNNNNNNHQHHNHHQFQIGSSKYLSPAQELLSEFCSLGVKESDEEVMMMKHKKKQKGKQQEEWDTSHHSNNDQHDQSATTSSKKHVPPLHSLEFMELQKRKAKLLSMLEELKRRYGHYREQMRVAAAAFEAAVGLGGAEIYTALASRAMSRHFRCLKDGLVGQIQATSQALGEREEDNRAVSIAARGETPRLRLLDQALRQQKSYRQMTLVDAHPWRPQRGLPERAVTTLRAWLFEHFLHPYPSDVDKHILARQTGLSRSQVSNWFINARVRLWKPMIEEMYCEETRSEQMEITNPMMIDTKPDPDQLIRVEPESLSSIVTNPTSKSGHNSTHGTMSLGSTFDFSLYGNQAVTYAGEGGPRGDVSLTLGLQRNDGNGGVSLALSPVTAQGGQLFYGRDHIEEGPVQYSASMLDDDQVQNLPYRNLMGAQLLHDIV
Description: two-hybrid; bait in pDEST32 (DBD), prey in pDEST22 (AD), S. cerevisiae AH109; growth on SD-Leu-Trp-His with 2.5 mM 3-amino-1,2,4-triazole, 10-, 100- and 1,000-fold dilutions.

B1: TCP16 (yeast two-hybrid prey, activation domain fusion) (protein, UniProt Q9M1U4 1-165)
chain: MDSKNGINNSQKARRTPKDRHLKIGGRDRRIRIPPSVAPQLFRLTKELGFKTDGETVSWLLQNAEPAIFAATGHGVTTTSNEDIQPNRNFPSYTFNGDNISNNVFPCTVVNTGHRQMVFPVSTMTDHAPSTNYSTISDNYNSTFNGNATASDTTSAATTTATTTV
Take B1: the binding entry in assay [1] and in assay [2] was “no binding” in each case.

B2: TCP18 (yeast two-hybrid prey, activation domain fusion) (protein, UniProt A1YKT1 1-433)
chain: MNNNIFSTTTTINDDYMLFPYNDHYSSQPLLPFSPSSSINDILIHSTSNTSNNHLDHHHQFQQPSPFSHFEFAPDCALLTSFHPENNGHDDNQTIPNDNHHPSLHFPLNNTIVEQPTEPSETINLIEDSQRISTSQDPKMKKAKKPSRTDRHSKIKTAKGTRDRRMRLSLDVAKELFGLQDMLGFDKASKTVEWLLTQAKPEIIKIATTLSHHGCFSSGDESHIRPVLGSMDTSSDLCELASMWTVDDRGSNTNTTETRGNKVDGRSMRGKRKRPEPRTPILKKLSKEERAKARERAKGRTMEKMMMKMKGRSQLVKVVEEDAHDHGEIIKNNNRSQVNRSSFEMTHCEDKIEELCKNDRFAVCNEFIMNKKDHISNESYDLVNYKPNSSFPVINHHRSQGAANSIEQHQFTDLHYSFGAKPRDLMHNYQNMY
On to B2, for which the binding entry in assay [3] is given as “no binding”; in assay [1], “binds”; in assay [2], “binds”.

B3: BEL1 fused with a luciferase half (35Spro-BEL1-nLUC by the methods) (protein, UniProt Q38897 1-611)
chain: T1 sequence
Consider B3, for which the binding result in assay [4] is reported as “binds”.

B4: TCP4 (yeast two-hybrid prey, activation domain fusion) (protein, UniProt Q8LPR5 1-420)
chain: MSDDQFHHPPPPSSMRHRSTSDAADGGCGEIVEVQGGHIVRSTGRKDRHSKVCTAKGPRDRRVRLSAHTAIQFYDVQDRLGFDRPSKAVDWLIKKAKTSIDELAELPPWNPADAIRLAAANAKPRRTTAKTQISPSPPPPQQQQQQQQLQFGVGFNGGGAEHPSNNESSFLPPSMDSDSIADTIKSFFPVIGSSTEAPSNHNLMHNYHHQHPPDLLSRTNSQNQDLRLSLQSFPDGPPSLLHHQHHHHTSASASEPTLFYGQSNPLGFDTSSWEQQSSEFGRIQRLVAWNSGGGGGATDTGNGGGFLFAPPTPSTTSFQPVLGQSQQLYSQRGPLQSSYSPMIRAWFDPHHHHQSISTDDLNHHHHLPPPVHQSAIPGIGFASGEFSSGFRIPARFQGQEEEQHDGLTHKPSSASSISRH
For the molecule B4, the binding result in assay [3] was “no binding”; in assay [5] it was “binds”; in assay [1], “binds”; in assay [2], “binds”.

Values taken from paper PMC10499876.
